“Also recorded” adds a separate entry of the source. Read-outs that look alike come from different tables or passages of the source. Not every detail of the peptide structures is certain; ends, links or a residue may be inferred. Some compounds share one wording; it may come from a single statement. Square brackets hold non-standard residues; d marks the D form. Peptide text beside a SMILES is read from it. Nle = CCCC[C@H](N)C(=O)O; Nva = CCC[C@H](N)C(=O)O
Key:
[1] = tested on: splenocytes loaded with native peptide; assay: PRAME pCTLR2 prime / peptide boost, in vivo cytotoxicity (CFSE); set-up: species or system HHD transgenic mice
[2] = tested on: T cell line specific for the native epitope PRAME425-433; assay: Cross-reactivity: IFN-gamma secretion from T cell line specific for native PRAME425-433; assay type: cell-based, HHD transgenic mice; conditions: analog peptide at approximately 0.304 (so in the source)
Procedure: At 7 days after the last boost, the mice were sacrificed and a suspension of splenocytes prepared at 5×10^6 […] cells/ml in complete HL-1 medium. Cells were incubated with different concentrations of peptide for 48 hours in flat-bottomed 96-well plates (200 μl/well) and for an additional 24 hours with rIL-2 at 10 U/ml added to the wells. The supernatant was harvested and the concentration of IFN-gamma assessed by standard methods such as ELISA.
The analogs listed in FIGS. 26-28 were tested for various properties such as improved affinity and stability of binding, cross-reactivity with the native epitope, and immunogenicity as follows in Examples 40-48. […] The observed affinities of the analogs are reported as % binding (compared to the positive control) and ED50, and stability of binding as half time of dissociation. Cross reactivity with the native epitope was assessed by using the analog peptides to stimulate IFN-gamma secretion from a T cell line specific for the native epitope, essentially as described in Example 6. The data shown in FIGS. 26-28 were generated by stimulating with analog peptide at approximately 0.304. […] In some cases, the reported values are the average of two determinations.

[3] = tested on: A2-624.28 control cells; assay: PRAME pCTLR2 prime / analog boost, ex vivo 51Cr cytotoxicity against A2-negative control cells; assay type: in vivo, human
[4] = tested on: splenocytes stimulated with native PRAME425-433 peptide; assay: PRAME pCTLR2 prime / peptide boost, ex vivo IFN-γ production (ELISA); assay type: in vivo, HHD transgenic mice; conditions: 2.5 μg peptide boost, 10 μg/ml native peptide, 48 hours
[5] = tested on: PRAME+ 624.38 melanoma cells; assay: PRAME pCTLR2 prime / analog boost, ex vivo 51Cr cytotoxicity against human tumor cells; assay type: in vivo
[6] = tested on: PRAME425-433-specific T cells; assay: PRAME pCTLR2 prime / peptide boost, tetramer/CD8 co-staining; assay type: in vivo, HHD transgenic mice; conditions: versus mice boosted with negative control peptide
[7] = tested on: Tyrosinase specific CD8+ cells; assay: Tyrosinase plasmid prime / peptide boost, tetramer analysis; assay type: in vivo, HHD transgenic mice
[8] = tested on: splenocytes loaded with natural peptide Tyrosinase369-377; assay: Tyrosinase pSEM prime / peptide boost, in vivo cytotoxicity (CFSE); set-up: species or system HHD transgenic mice
[9] = molecular target: T1, HLA-A*0201 (Homo sapiens, UniProt P04439, D140Y/D185E/D98H/E176V/E277Q/G131W/G231S/I119V/I121R/I166T/I218V/L300P/L318F/N151K/N90K/P208A/P217A/Q86G/Q94H/R138H/R169H/T345S); assay: iTopia off-rate assay (T1/2); assay type: binding
[10] = molecular target: T1, HLA-A*0201; assay: iTopia affinity assay (ED50); assay type: binding
Text: Avidin-coated microtiter plates containing class I monomer loaded with a so-called placeholder peptide were used to evaluate peptide binding, affinity and off-rate. The monomer-coated plates were supplied as part of the iTopia Epitope Discovery System Kit (Beckman Coulter, Inc., San Diego, Calif., USA). Assay buffers, anti-MHC-FITC mAb and beta2-microglobulin and control peptides were also supplied with the kits.
Plates were read on the fluorometer. Sigmoidal dose response curves were generated using Prism software.

Structure (SMILES) | In vivo cytotoxicity against native PRAME epitope coated cells [1] | IFN-γ production / cross-reactivity with native PRAME425-433 (in words) [2] | Cytotoxicity against A2-negative control cells [3] | IFN-γ production by splenocytes in response to native PRAME425-433 ([4]; listed as L426Nva L433Nle) | IFN-γ production by splenocytes in response to native PRAME425-433 ([4]; listed as PRAME425-433 L426Nva L433Nle) | Cytotoxicity against human tumor cells expressing A2 (624.38) [5] | Expansion of T cells specific against native PRAME epitope (tetramer) [6] | Expansion of Tyrosinase-specific T cells (tetramer) [7] | Expansion of Tyrosinase-specific T cells (tetramer) ([7]; listed as 377Nva analog) | In vivo cytotoxic immunity against natural Tyrosinase epitope [8] | Stability of binding (half time of dissociation) relative to native peptide (in words) [9] | Binding affinity (ED50) relative to native peptide (in words) [10]
CCCC[C@H](NC(=O)CNC(=O)[C@@H](NC(=O)[C@H](CC(C)C)NC(=O)[C@H](Cc1c[nH]cn1)NC(=O)[C@H](CCC(N)=O)NC(=O)[C@H](CC(C)C)NC(=O)[C@H](CCC)NC(=O)[C@@H](N)CO)[C@@H](C)CC)C(=O)O [Prame 425-433 (L426Nva, L433Nle), S{Nva}LQHLIG{Nle}] (H-S[Nva]LQHLIG[Nle]-OH) | cytotoxic immunity against native epitope coated cells; also recorded: preserved induction of cytotoxicity; also recorded: capable of expanding the immunity against the native epitope | significant level of cross-reactivity | no significant activity | greater response | significant enhancement of IFN-γ production | cytotoxic immunity against a human tumor cell line; also recorded: significant cytotoxicity against human tumor cells expressing A2 (624.38) | significantly higher | – | – | – | – | –
CCC[C@H](NC(=O)[C@H](CCC(N)=O)NC(=O)[C@H](CO)NC(=O)[C@H](CCSC)NC(=O)[C@@H](NC(=O)CNC(=O)[C@H](CC(=O)O)NC(=O)[C@H](CCSC)NC(=O)[C@@H](N)Cc1ccc(O)cc1)[C@@H](C)O)C(=O)O [Tyrosinase 369-377 (V377Nva)] | – | – | – | – | – | – | – | capable of expanding the population of tyrosinase-specific T cells | preserved the expansion of Tyrosinase-specific subset | amplifying cytotoxic immunity | – | –
CCCC[C@H](NC(=O)CNC(=O)[C@@H](NC(=O)[C@H](CC(C)C)NC(=O)[C@H](Cc1c[nH]cn1)NC(=O)[C@H](CCC(N)=O)NC(=O)[C@H](CC(C)C)NC(=O)[C@H](CC(C)C)NC(=O)[C@@H](N)Cc1ccccc1)[C@@H](C)CC)C(=O)O [S425F L433Nle] (H-FLLQHLIG[Nle]-OH) | – | significant cross-reactivity; also recorded: elicited more IFN-γ than the native peptide | – | – | – | – | – | – | – | – | somewhat improved binding stability; also recorded: nearly doubled halftime of dissociation | more that fourfold reduced ED50
